Where “and” joins values, the source holds several entries; their conditions need not be identical. Identical values can stand only once. Among all 280,000 compounds or so, about 1,100 (0.39%) were called active. Inconclusive results, whose numbers are uncertain, are shown with a selection of clear calls. The call rests on the fitted dose curve; in most records, active means well fitted inhibition curve with a large enough effect; inconclusive means small, poorly fitted or top-dose-only effect, or effect the other way; inactive means flat fitted curve, though single readings scatter. Potencies of inconclusive entries are doubtful fits and often do not repeat.
target: Microtubule-associated protein tau (Homo sapiens) (UniProt P10636); assay: qHTS for Inhibitors of Tau Fibril Formation, Fluorescence Polarization; details: K18 P301L tau heparin fibrillization, Alexa594 FP, 6 h; series mostly up to 57.7 µM; activity, negative = inhibition: at the top concentration; further: nearly all actives have a fitted effect of over 55% in size
Method in brief: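 Steps: dispense K18 P301L tau (15 uM plus 0.24 uM Alexa 594 tracer, final) in pH 7 sodium acetate; add compound; add heparin (20 uM final); incubate 6 hr, 37 C; add ThT (30 uM final); after 1 hr ambient, read FP.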
On the % scale 0 is the no-effect control and ±100 the full control effect; potency means the concentration at half of the fitted maximal effect; tags describe the fitted curve by direction and shape.

Chain of UniProt P10636 (P10636 whole entry, looked up): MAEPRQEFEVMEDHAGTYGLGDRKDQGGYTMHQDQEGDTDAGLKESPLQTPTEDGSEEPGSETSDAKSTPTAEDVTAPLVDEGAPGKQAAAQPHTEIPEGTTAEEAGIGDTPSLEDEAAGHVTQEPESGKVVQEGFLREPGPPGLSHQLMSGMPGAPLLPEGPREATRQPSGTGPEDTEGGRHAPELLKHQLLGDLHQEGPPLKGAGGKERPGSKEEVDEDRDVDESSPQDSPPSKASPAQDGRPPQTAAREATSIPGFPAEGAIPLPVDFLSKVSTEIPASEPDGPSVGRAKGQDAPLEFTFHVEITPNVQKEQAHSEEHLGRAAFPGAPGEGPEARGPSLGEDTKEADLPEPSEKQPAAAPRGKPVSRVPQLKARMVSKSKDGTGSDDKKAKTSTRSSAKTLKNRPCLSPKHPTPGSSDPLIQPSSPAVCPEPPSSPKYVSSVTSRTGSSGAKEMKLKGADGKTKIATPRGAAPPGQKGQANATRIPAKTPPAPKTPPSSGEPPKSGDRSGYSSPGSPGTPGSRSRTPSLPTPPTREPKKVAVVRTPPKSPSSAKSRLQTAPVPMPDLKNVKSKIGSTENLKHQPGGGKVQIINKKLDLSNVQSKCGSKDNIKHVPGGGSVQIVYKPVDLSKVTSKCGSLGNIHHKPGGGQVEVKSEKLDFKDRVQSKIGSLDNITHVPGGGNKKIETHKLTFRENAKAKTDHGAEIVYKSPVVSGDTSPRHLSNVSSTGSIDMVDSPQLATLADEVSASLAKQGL

| SMILES | Potency | activity, negative = inhibition |
| --- | --- | --- |
| CN(C)c1oc(-c2ccccc2[N+](=O)[O-])nc1C#N | inconclusive: 22.4 µM [inhibitor, single point] |  |
| CCN1/C(=C/c2ccc3cc(C)ccc3[n+]2CC)Sc2cc(C)ccc21 | inconclusive: 39.8 µM [inhibitor, single point] |  |
| Oc1ccc(N2CCN(c3ncnc4sc(-c5ccccc5)cc34)CC2)cc1 | inconclusive: 2.24 µM [activator, full curve] |  |
| O=C1c2ccccc2C(=O)c2c(O)c(O)cc(O)c21 | inconclusive: 22.4 µM [inhibitor, single point] and inconclusive: 28.2 µM [inhibitor, single point] |  |
| O=C(Cn1cc(C(F)(F)F)ccc1=O)N/N=C/c1ccc(F)cc1 |  | inactive: -8.71% |
| CNc1nc2c3ccccc3n(C(C)=O)c2s1 |  | inactive: -6.59% |
| Cc1ccc(C)c(NC(=O)C(c2ccccc2)N2Cc3ccccc3C2=O)c1 (stereo not given) |  | inactive: 3.42% |
| COc1cc2cc(CNc3ccccc3)c(=O)n(CC(=O)Nc3cc(C)cc(C)c3)c2cc1OC | inconclusive: 0.355 µM [activator, full curve, poor fit] |  |
| Cc1cc(C)c(C(=O)COc2cccnc2[N+](=O)[O-])cc1C | inconclusive: 14.1 µM [inhibitor, partial curve] |  |
| Cc1ccc(OCC(=O)O/N=C(\N)c2cccc([N+](=O)[O-])c2)cc1C | inconclusive: 17.8 µM [inhibitor, single point] |  |
| CC(C)c1ccc(Nc2nc3c(S(=O)(=O)c4ccc(Br)cc4)nnn3c3ccsc23)cc1 | inconclusive: 8.91 µM [inhibitor, partial curve] |  |
| O=C(Nc1nc(=O)c2ccccc2s1)c1ccc(Cl)cc1 | inconclusive: 20 µM [inhibitor, single point] |  |
| Cc1cc2nc(-c3cccc(NC(=O)CSc4ccc(Cl)cc4)c3)oc2cc1C | inconclusive: 12.6 µM [inhibitor, partial curve] |  |
| O=C1NC(=S)SC1=C1CCCC1 | inconclusive: 0.0251 µM [inhibitor, full curve, poor fit] |  |
| CC(=O)Nc1ccc(S(=O)(=O)Nc2cccc(-c3nc4ccccc4o3)c2)cc1 | inconclusive: 17.8 µM [inhibitor, partial curve] |  |
| O=c1[nH]c(Cc2cccs2)nc2ccccc12 |  | inactive: -1.49% |
| Cc1cccc(-c2c3c(=O)n(C)c(=O)n(C)c3c3cnc4ccccc4n23)c1 |  | inactive: 2.58% |
| CCCCCCCC1=Cc2ccc(F)cc2C(C(C(C)=O)C(=O)OC)N1C(=O)OC (stereo not given) | inactive and inconclusive: 5.01 µM [inhibitor, partial curve, poor fit] |  |
| O=C(Nc1c(Cl)cccc1Cl)c1cc(-c2cccc(O)c2)on1 | inconclusive: 35.5 µM [inhibitor, single point] |  |
| Nc1nc(Nc2ccccc2F)nc(NCc2ccccc2)c1[N+](=O)[O-] | inconclusive: 17.8 µM [inhibitor, partial curve] |  |
| CCCCNc1nc2c(c(=O)n(Cc3ccc(Cl)c(Cl)c3)c(=O)n2C)n1C | inconclusive: 1.78 µM [activator, full curve, poor fit] |  |
| Cc1ccc(CNC(=O)CSc2nc3n[nH]c(C)c3c(=N)n2-c2cccc(C)c2)cc1 | inconclusive: 0.316 µM [inhibitor, full curve, poor fit] |  |

| SMILES | Potency | activity, negative = inhibition |
| --- | --- | --- |
| CCN1CCN(c2ccc(NC(=O)CCc3c(C)nc4c(-c5ccccc5)c(C)nn4c3C)cc2)CC1 | inconclusive: 3.55 µM [activator, full curve] |  |
| CCOc1ccc(NC(=O)Cn2cc(S(=O)(=O)N3CCN(c4ccccc4F)CC3)c3ccccc3c2=O)cc1 | inconclusive: 39.8 µM [inhibitor, single point] |  |
| O=C(Nc1ccc(S(=O)(=O)Nc2nccs2)cc1)c1cc(-c2ccccc2)nc2ccccc12 | inconclusive: 28.2 µM [inhibitor, partial curve] |  |
| N#Cc1c(N(CCO)CCO)nc(N)c2c(N)nc3c(c12)CC(=O)N3Cc1cccs1 | inconclusive: 31.6 µM [inhibitor, single point] |  |
| CCCCCOC(=O)C(C)c1c(C)[nH]c(=S)[nH]c1=O (stereo not given) |  | inactive: 2.25% |
| CC(C)c1nc(SCC(=O)N2c3ccccc3CC2C)c2ccccc2n1 (stereo not given) | inconclusive: 0.891 µM [inhibitor, full curve, poor fit] |  |
| O=C(Cc1ccccc1)NCc1n[nH]c(=S)n1-c1ccc(Br)cc1 |  | inactive: 8.46% |
| Cc1cnc2c(c1SCC(=O)NCc1ccc(F)cc1)c(=O)n(C)c(=O)n2C | inconclusive: 44.7 µM [inhibitor, single point] |  |
| Cc1cccc(OCc2nnc(SCC(=O)Nc3cc(C)on3)n2C)c1 | inconclusive: 8.91 µM [inhibitor, single point] |  |
| CCOCCc1nnc(NC(=O)C(=O)c2cc(C)n(-c3cccc(Cl)c3)c2C)s1 |  | inactive: -4.27% |
| COc1cc(NC(=O)c2cc(-c3cccc(Cl)c3)on2)c(OC)cc1Cl | inconclusive: 11.2 µM [inhibitor, partial curve] |  |
| Cc1ccc(C)c(N2CCN(C(c3ccc(F)cc3)c3nnc(-c4ccccc4)o3)CC2)c1 (stereo not given) |  | inactive: -1.21% |
| CC1(C)c2ccccc2N2CC(=O)N(CC(N)=O)C21C (stereo not given) | inconclusive: 31.6 µM [activator, partial curve] |  |
| Nc1cc(C(=O)O)c(N)c2c1C(=O)c1ccccc1C2=O | active: 20 µM |  |
| CCC1=Nc2ccccc2NC2=C1C(=O)CCC2 | inconclusive: 31.6 µM [inhibitor, single point] |  |
| Cc1cc(C)c(/C=C/c2onc(C)c2S(=O)(=O)N2CCC(C(=O)Nc3ccc(Cl)c(C(F)(F)F)c3)CC2)c(C)c1 | inconclusive: 7.94 µM [inhibitor, partial curve] |  |
| O=C(COc1ccccc1F)Nc1ccc(Cl)c(-c2nc3ccccc3[nH]2)c1 | inconclusive: 28.2 µM [inhibitor, partial curve] |  |
| CC(C)CC(NC(=O)C1CCC(C)CC1)C(=O)Nc1ccc2c(c1)OCCO2 (stereo not given) | inconclusive: 39.8 µM [inhibitor, single point] |  |
| Cc1ccc(S(=O)(=O)Nc2ccc3c(c2)c2c(n3S(=O)(=O)c3ccc(C)cc3)CCCC2=O)cc1 | inconclusive: 25.1 µM [inhibitor, single point] |  |
| COc1ccc(NC(=O)COc2ccc(N(C)S(=O)(=O)c3ccc(C)cc3)cc2)cc1 | inconclusive: 1 µM [inhibitor, single point] |  |
| C=C(C)CN(CC)C(=O)CSc1nc2ncc(Cl)cc2[nH]1 |  | inactive: 2.97% |
| O=C(NN1C(=O)c2ccccc2NC1c1ccc([N+](=O)[O-])o1)c1ccc(Br)cc1 (stereo not given) | inconclusive: 2.51 µM [inhibitor, partial curve] |  |

| SMILES | Potency | activity, negative = inhibition |
| --- | --- | --- |
| CCOC(=O)c1cccc(NC(=O)c2ccc3snnc3c2)c1 | inconclusive: 31.6 µM [inhibitor, single point] |  |
| O=C1S/C(=C\C=C\c2ccco2)C(=O)N1c1ccc(O)cc1 | inconclusive: 35.5 µM [inhibitor, single point] |  |
| CCc1c(C#N)c(SCCC(=O)Nc2cccc(OC)c2)nc2c1C(=O)CC(C)(C)C2 | inconclusive: 10 µM [inhibitor, partial curve] |  |
| CCN=C1S/C(=C\c2sccc2C)C(=O)N1CC | inconclusive: 8.91 µM [inhibitor, single point] |  |
| COC(=O)c1sccc1S(=O)(=O)N(CC(=O)NCc1ccccc1)c1ccc(C)cc1 |  | inactive: 3.47% |
| Cc1ccc(Nc2nc(N)nc(N)c2S(=O)(=O)c2ccccc2)cc1 | inconclusive: 39.8 µM [inhibitor, partial curve, poor fit] |  |
| C=C1C(c2ccc(C)cc2)=CCc2cc(C)cc(C)c21 |  | inactive: 4.06% |
| O=C1CC(N2CCN(C3CC(=O)N(CCc4ccccc4)C3=O)CC2)C(=O)N1CCc1ccccc1 (stereo not given) |  | inactive: -0.534% |
| COC(=O)C1CCN(C(c2ccccc2Cl)c2sc3nc(-c4ccco4)nn3c2O)CC1 (stereo not given) |  | inactive: -4.32% |
| O=C(C[n+]1cccc(CNC(=O)c2ccc(OC(F)F)cc2)c1)Nc1cc(C(F)(F)F)ccc1Cl | inconclusive: 39.8 µM [inhibitor, single point] |  |
| COc1ccccc1-n1c(Cc2cccs2)n[nH]c1=S |  | inactive: -13.3% |
| OCC1(CCCc2ccccc2)CCN(Cc2cnc(N3CCOCC3)s2)CC1 | inconclusive: 8.91 µM [inhibitor, single point] |  |
| O=C(N/N=C/c1cc(Cl)cc([N+](=O)[O-])c1O)C1CC1 |  | inactive: 3.08% |
| S=C(c1cn(Cc2ccccc2)c2ccccc12)N1CCOCC1 |  | inactive: 5.7% |
| O=C(CCN1CCOCC1)c1ccc2c(c1)OCCO2 | inconclusive: 10 µM [activator, partial curve] |  |
| COc1ccc(-c2cc(C(F)(F)F)nc(NCCc3ccccc3)n2)cc1 | inconclusive: 17.8 µM [inhibitor, partial curve] |  |
| COC(=O)c1cccc(CN2C(=O)SC(Nc3ccc(Br)cc3)C2=O)c1 (stereo not given) | inconclusive: 31.6 µM [inhibitor, partial curve, poor fit] |  |
| Cc1ccc(NC(=O)CSc2nc3ccc(NC(=O)c4ccco4)cc3s2)c(C)c1 | inconclusive: 12.6 µM [inhibitor, partial curve] |  |
| CCCCc1cn([C@@H](CCCCNC(=O)OC(C)(C)C)C(=O)N2CCN(C(=O)OC(C)(C)C)CC2)nn1 | inconclusive: 5.01 µM [activator, partial curve, poor fit] |  |
| O=C(c1ccco1)N1CCN(C(=O)c2cc(-c3ccccn3)nc3ccccc23)CC1 |  | inactive: 3.09% |
| COc1cc(/C=N/NC(=S)NC2CC3C=CC2C3)cc(OC)c1OC (stereo not given) |  | inactive: 5.79% |

Reference: PubChem BioAssay AID1468 (National Center for Advancing Translational Sciences (NCATS), 2008)
